Experimental findings from PMC6451091 are described below.

The other results are listed elsewhere or left out. For part of these data: At the low end of the ranking, values are background and their order means little. For part of these data: The protein was read in a cell extract, so binding may be indirect.

Common to all, as to settings: 20 mM HEPES pH 7.9, 100 mM NaCl, 1 mM DTT, 0.2 mg/mL BSA, 0.02% Triton X-100, 2% milk, 0.4 mg/mL salmon testes DNA; 1 h; temperature not stated; high values mean tight binding; double strand, one strand shown; sequences stand for … in GCCTAGCAC…GTGCTAGGTCTTGATTCGCTTGACGCTGCTG
In one assay the target is PU.1 (IVT) (UniProt P17947). In words: protein-binding microarray (PBM).
The target in assay [1] is T1, FLI1 (endogenous, THP-1 nuclear extract) (UniProt Q01543).
T1 sequence: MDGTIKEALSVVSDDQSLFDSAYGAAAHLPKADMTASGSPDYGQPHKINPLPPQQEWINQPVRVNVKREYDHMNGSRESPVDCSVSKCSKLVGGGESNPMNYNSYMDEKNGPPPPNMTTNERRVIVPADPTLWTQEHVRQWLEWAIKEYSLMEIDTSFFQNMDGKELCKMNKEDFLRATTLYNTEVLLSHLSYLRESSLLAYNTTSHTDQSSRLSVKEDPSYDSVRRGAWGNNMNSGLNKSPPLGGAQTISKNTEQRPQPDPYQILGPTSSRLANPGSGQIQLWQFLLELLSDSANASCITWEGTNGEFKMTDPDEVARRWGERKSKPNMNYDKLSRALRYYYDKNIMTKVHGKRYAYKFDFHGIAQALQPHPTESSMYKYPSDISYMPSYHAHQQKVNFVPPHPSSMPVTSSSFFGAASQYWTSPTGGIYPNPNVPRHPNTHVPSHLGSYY
In words: nuclear extract protein-binding microarray (nextPBM).

The test system of assay [2] is PU.1 (endogenous, THP-1 nuclear extract) + IRF8 (endogenous, THP-1 nuclear extract). The description is as above.
Assay [3] concerns the target PU.1 (endogenous, THP-1 nuclear extract) (UniProt P17947). The description is as above.

Regarding TTTCAGAGGAACTGAAAGTT, the binding signal with PU.1 (IVT) is 1.5 z-score; in assay [1], 0.845 z-score; in assay [2] it was 3.73 z-score.

Consider AAAATAAGGAAATGAAAGTA, for which the figures for the binding signal (with PU.1 (IVT); in assay [1]; in assay [2]) were 3.43 z-score, 2.23 z-score and 19 z-score, respectively.

On to TAAAGGAGGAGCTGAAACCA, for which the binding signal with PU.1 (IVT) is -0.546 z-score; in assay [1], -0.601 z-score; in assay [2], 2.11 z-score.

Consider GTGGCAGGGAACTGAAACTC, for which the values for the binding signal (with PU.1 (IVT); in assay [1]; in assay [2]) were 0.317 z-score, -0.198 z-score and 13.2 z-score, respectively.

As for CAGGGCAGGAAGTGAAACCC, the binding signal is 1.55 z-score with PU.1 (IVT), 4.33 z-score in assay [1] and 16.5 z-score in assay [2].

With CTGGCAGGGAAGTGAAACTC, the binding signal in the assay with PU.1 (IVT) came to 2.03 z-score; in assay [1], 1.54 z-score; in assay [2], 29.9 z-score.

TAATAGAGGAAGTGAAACTA: the binding signal with PU.1 (IVT) worked out at 6.28 z-score; in assay [1] it was 3.95 z-score; in assay [2], 84.9 z-score.

With GATAAGAGGAACAGAAAGCT, the binding signal came out at 2.37 z-score in the assay with PU.1 (IVT), 0.0235 z-score in assay [1] and 0.649 z-score in assay [2].

Regarding CAGAAAAAGAAGTGAAACTA, the binding signal was 0.472 z-score with PU.1 (IVT), 0.143 z-score in assay [1] and 44 z-score in assay [2].

For AAAATGAGGAACTGAAACTA, the binding signal with PU.1 (IVT) was determined as 6.56 z-score; in assay [1], 3.45 z-score; in assay [2], 70.8 z-score.

Turning to AGATGGAGGAAGTGAAACCA, the figures for the binding signal (in the assay with PU.1 (IVT); in assay [1]; in assay [2]) were 3.96 z-score, 3.44 z-score and 56.5 z-score, respectively.

GATAAGAGGAACTGAAATCT: the binding signal with PU.1 (IVT) came to 4.58 z-score; in assay [1], 1.43 z-score; in assay [2] it was 0.149 z-score.

On to TTTTTGAGGAACTGAAACTG, for which the binding signal with PU.1 (IVT) was found to be 4.69 z-score; in assay [1] it was 2.37 z-score; in assay [2], 55.9 z-score.

Take TGAAAGTGGAAGTGAAACTT: the values for the binding signal (with PU.1 (IVT); in assay [1]; in assay [2]) were 3.7 z-score, 2.3 z-score and 57.7 z-score, respectively.

Consider TGAGCGGAGAAGTGAAACCT, for which the binding signal with PU.1 (IVT) worked out at 0.175 z-score; in assay [1], 0.291 z-score; in assay [2], 24.3 z-score.

With CTGGCAGGGAACTGAACCTC, the binding signal in the assay with PU.1 (IVT) is 0.425 z-score; in assay [1], -0.233 z-score; in assay [2], 0.972 z-score.

Turning to TTCAGGGGGAAGTGAAAGTT, the binding signal was found to be 3.64 z-score with PU.1 (IVT), 2.3 z-score in assay [1] and 16.8 z-score in assay [2].

Take AAAAAGAGGAACTGAAACTT: the binding signal in the assay with PU.1 (IVT) turned out to be 7.7 z-score; in assay [1] it was 3.27 z-score; in assay [2] it was 72.4 z-score.

For the sequence AGGCAGAGGAAGTGAAACTA, the figures for the binding signal (with PU.1 (IVT); in assay [1]; in assay [2]) were 3.35 z-score, 3.52 z-score and 57.6 z-score, respectively.

As to AAATTAAGGAACTGAAACTC, the binding signal with PU.1 (IVT) was found to be 4.01 z-score; in assay [1] it was 2.04 z-score; in assay [2], 36.3 z-score.

For the sequence TGAAACAGGAAGTCAAACCA, the figures for the binding signal (with PU.1 (IVT); in assay [1]; in assay [2]) were 5.83 z-score, 4.83 z-score and 0.359 z-score, respectively.

Turning to AGAAAGGGGAAGAGAAACTG, the binding signal came to 4.81 z-score with PU.1 (IVT), 2.18 z-score in assay [1] and 6.66 z-score in assay [2].

With CTGGCAGGGAACTGTAACTC, the binding signal is 0.407 z-score in the assay with PU.1 (IVT), 0.0734 z-score in assay [1] and -0.0623 z-score in assay [2].

CTGTCAGGGAACTGAAACTC: the binding signal is 0.378 z-score in the assay with PU.1 (IVT), 0.519 z-score in assay [1] and 8.29 z-score in assay [2].

Turning to CATAAGAGGAACTGAAAGCT, the binding signal came to 3.89 z-score with PU.1 (IVT), 1.25 z-score in assay [1] and 6.09 z-score in assay [2].

As to CTGCCAGGGAAGAGAAAGCA, the binding signal in the assay with PU.1 (IVT) was -0.545 z-score; in assay [1], -0.122 z-score; in assay [2] it was 1.35 z-score.

Regarding CTGCCAGGGAATTGAAAGCA, the binding signal is -0.456 z-score with PU.1 (IVT), -0.243 z-score in assay [1] and 0.364 z-score in assay [2].

Take CTGCCAGGCAAGTGAAAGCA: the binding signal in the assay with PU.1 (IVT) was -0.274 z-score; in assay [1], -0.675 z-score; in assay [2] it was 2.04 z-score.

As for TCTTTGAGGAAATGAAACCA, the figures for the binding signal (with PU.1 (IVT); in assay [1]; in assay [2]) were 2.2 z-score, 2.33 z-score and 29.9 z-score, respectively.

For the sequence GAAGACAGGAAGTGAAACTT, the results for the binding signal (with PU.1 (IVT); in assay [1]; in assay [2]) were 3.72 z-score, 5.38 z-score and 50.9 z-score, respectively.

As for GAAAAGAGGAAGCGAAACTA, the binding signal with PU.1 (IVT) was 6.51 z-score; in assay [1], 4.24 z-score; in assay [2] it was 81.5 z-score.

In the case of TGGCATAGGAAGTGAAACTA, the binding signal amounted to 1.89 z-score in the assay with PU.1 (IVT), 2.88 z-score in assay [1] and 61 z-score in assay [2].

With AAAAAAAGGAAATGAACGTA, the binding signal turned out to be 3.24 z-score in the assay with PU.1 (IVT), 2.17 z-score in assay [1] and 0.329 z-score in assay [2].

Regarding TGGGAGGAGAAGTGAAACCT, the binding signal in the assay with PU.1 (IVT) stood at 1.37 z-score; in assay [1], 0.356 z-score; in assay [2] it was 21.9 z-score.

Turning to CTGCAAGGGAAGTGAAAGCA, the results for the binding signal (with PU.1 (IVT); in assay [1]; in assay [2]) were 2.15 z-score, 1.89 z-score and 4.39 z-score, respectively.

For AAAAAAAGGAGATGAAAGTA, the binding signal in the assay with PU.1 (IVT) is -0.187 z-score; in assay [1], 0.244 z-score; in assay [2], 2.97 z-score.

With TCTCTGAGGAAGTGAAACTC, the binding signal was 2.86 z-score with PU.1 (IVT), 2.75 z-score in assay [1] and 46.9 z-score in assay [2].

On to CTGCCAGGGAAGTGTAAGCA, for which the binding signal in the assay with PU.1 (IVT) was 0.66 z-score; in assay [1] it was 0.693 z-score; in assay [2], -0.337 z-score.

For GGAGAGGAGAAGTGAAACCT, the binding signal in the assay with PU.1 (IVT) was 1.23 z-score; in assay [1] it was 0.714 z-score; in assay [2], 23.5 z-score.

As for TGAGAGGAGAAGTGAAACGT, the binding signal amounted to 1.6 z-score with PU.1 (IVT), 0.122 z-score in assay [1] and 0.78 z-score in assay [2].

As for CTGCCAGGGAAATGAAAGCA, the binding signal with PU.1 (IVT) was -0.0473 z-score; in assay [1] it was 0.383 z-score; in assay [2] it was 2 z-score.

With ATTTTCAGGAAGTGAAACTA, the binding signal in the assay with PU.1 (IVT) is 5.62 z-score; in assay [1], 4.43 z-score; in assay [2] it was 76 z-score.

Regarding TAAATGAGGAACTGAAACCA, the binding signal in the assay with PU.1 (IVT) came out at 5.87 z-score; in assay [1], 2.9 z-score; in assay [2], 69 z-score.

On to CAAAAGCAGAAGTGAAACTT, for which the binding signal with PU.1 (IVT) was determined as 5.34 z-score; in assay [1], 3.39 z-score; in assay [2], 62.1 z-score.

On to CGAAACAGGAAGTGAAACCA, for which the values for the binding signal (with PU.1 (IVT); in assay [1]; in assay [2]) were 6.68 z-score, 5.85 z-score and 80.8 z-score, respectively.

With TAAAGGAGGGACTGAAACCA, the binding signal in the assay with PU.1 (IVT) was -0.169 z-score; in assay [1], -0.11 z-score; in assay [2], 7.54 z-score.

In the case of AAAAAGGAGAAGTGAAACTG, the binding signal turned out to be 5.92 z-score with PU.1 (IVT), 3.24 z-score in assay [1] and 76.1 z-score in assay [2].

Turning to TAAAGGAGGAAATGAAACCA, the binding signal in the assay with PU.1 (IVT) is 2.45 z-score; in assay [1], 2.71 z-score; in assay [2] it was 29.6 z-score.

In the case of AAAAGAAGGAAGTGAAACTC, the binding signal with PU.1 (IVT) is 5.43 z-score; in assay [1], 3.52 z-score; in assay [2] it was 68.3 z-score.

Take GAAAGAGGGAAGTGAAAGTC: the binding signal with PU.1 (IVT) worked out at 5.25 z-score; in assay [1], 2.54 z-score; in assay [2], 28.4 z-score.

Turning to TCAAACAGGAAGTGAAACCA, the binding signal amounted to 5.59 z-score with PU.1 (IVT), 5.84 z-score in assay [1] and 67.7 z-score in assay [2].

Regarding TGTAACAGGAAGTGAAACCA, the binding signal with PU.1 (IVT) was 4.74 z-score; in assay [1] it was 5.48 z-score; in assay [2], 75.9 z-score.

With TGAGAGGAGAAGTCAAACCT, the binding signal is 1.42 z-score in the assay with PU.1 (IVT), 0.0483 z-score in assay [1] and -0.073 z-score in assay [2].

In the case of CTGGCAGGGAACTGAAACGC, the binding signal with PU.1 (IVT) is 1.03 z-score; in assay [1] it was 0.242 z-score; in assay [2], -0.533 z-score.

Regarding ATTTTGCAGAACTGAAACTC, the binding signal with PU.1 (IVT) turned out to be 1.75 z-score; in assay [1], 0.618 z-score; in assay [2] it was 20 z-score.

As to CAAAACAGGAAGTGGCTCTT, the values for the binding signal (in the assay with PU.1 (IVT); in assay [3]; in assay [1]) were 7.77 z-score, 7.41 z-score and 5.67 z-score, respectively.

Take AAAAAGAGGAAGTGACTCAC: the figures for the binding signal (with PU.1 (IVT); in assay [3]; in assay [1]) were 8.49 z-score, 7.25 z-score and 4.2 z-score, respectively.

Take GGGAAGGGGAAGTGGCAGGG: the binding signal is 5.39 z-score in the assay with PU.1 (IVT), 5.68 z-score in assay [3] and 2.55 z-score in assay [1].

On to GGAAAGGGGAAGTGACCTCC, for which the binding signal worked out at 7.51 z-score in the assay with PU.1 (IVT), 7.52 z-score in assay [3] and 3.5 z-score in assay [1].

For GTAGAAAGGAAGTGAAGGAT, the binding signal in the assay with PU.1 (IVT) came out at 2.31 z-score; in assay [3], 2.05 z-score; in assay [1], 2.64 z-score.
